# Results from the supplement of paper PMC11417369.
# This is one part of the list.
# Test system: PF3D7_0420300 AP2 domain 1 (GST-tagged)
# Assay: gcPBM binding intensity (ln(normalized median fluorescence intensity)); higher = stronger DNA binding
# How it was run: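 An Agilent 4 × 180k array of primer-extended double-stranded 36-bp intergenic genomic probes, with negative controls, was incubated for 1 h with GST-tagged P. falciparum DNA-binding domains expressed in E. coli. Alexa488 anti-GST antibody detected bound protein, scanned at 488 nm. Binding intensity is the highest Masliner-normalised natural-log median intensity across replicate spots of either probe orientation.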
row,Sequence,gcPBM binding intensity (ln)
1,AACTTCTTTTTTATAACACACAAAATATATATACAA [CACACA_site282],9.35
2,TAATTATCACATTGCACACACATTTCCTTTTACATT [CACACA_site3443],9.91
3,GGCATACACAGACACACACACACACCCACATATATA [CACACA_site591],10.3
4,AATAAATAAATAAGTACACACATATATATATATATA [CACACA_site284],9.41
5,AAAAGAATGAAACATAATAAATTACATTAAAATAAT [CACACA_negctrl_site897],9.37
6,ATTTTTTTATTTTGTGCACACACATAAAAATATATA [CACACA_site762],9.58
7,ATAAAATCTTAATCAACAAACAAACAAAAAAAAAAT [CACACA_negctrl_site1161],9.54
8,GATTTTCATATTTTTTGTACTTACATTTTTCTATAC [XGTACX_site6002],9.59
9,TATGTGATATATTTATCACACATTATATATATATAT [CACACA_site5103],9.12
10,AATATTTAATTCAACACACATACATATTTATTAAAA [CACACA_site2342],9.38
11,TAATATGAAAAGTGTACACACGCACAGACAAAAAAA [CACACA_site5594],9.82
12,GCATAAATCAGACACACACACATATATAAATATGTA [CACACA_site7187],9.9
13,ATTCATTTTAATATGGGTACATAAAAATAAAAAGAA [XGTACX_site2801],9.16
14,TATGATGATGAATAACGTACAAAAAAATTAATCACC [XGTACX_site6794],9.55
15,TACATTTTTATTTTTACACACATATTTATTTATATA [CACACA_site6609],9.78
16,ATAAATATATGGTTTCATTATATTAAATTCAATTTA [CACACA_negctrl_site213],8.92
17,TGTTTATTTTTTTTATGTACTTATTTTTTATTGCAT [XGTACX_site719],9.59
18,AACTAAATTTATAATTGTACATTAAAATATGTATTA [XGTACX_site479],9.06
19,AAATATTACATACACGCACACATTAATATATTTAAA [CACACA_site2603],9.56
20,TTTTTTAAAACTTCAAAAAGAGCACTTGAATTTTTT [GTGCAC_negctrl_site455],8.64
21,ACATATACATTTATATGTACTCATTTATCTTATGTA [XGTACX_site6594],9.3
22,ACAAGAACAGAACGTACACACACATATATATATATA [CACACA_site9143],9.85

row,Sequence,gcPBM binding intensity (ln)
1,ACCTAATTTTTATATTGTACATAATATAATATATAT [XGTACX_site1715],9.45
2,ACCTACACAAGCATTAAACACACAAAAGGGATACTT [CACACA_site8273],9.75
3,TTTTACATATATATATGTACGAAAATGAAAAGGTCA [XGTACX_site5576],9.19
4,TATTATAATTTTATATGTACACATATATAAATATAT [XGTACX_site4054],9.03
5,AAAGTTACATTCGACACACACATAACAACTAAATAA [CACACA_site3419],9.86
6,CTAAATAAAGTTAACACACACATAATATTTATATGT [CACACA_site6368],9.61
7,TACATAAACATTTATACACACATTAGATATACATAT [CACACA_site6329],9.59
8,TCAAAGAGTAGAAAGGTGCTTATGAACGAGATAATT,9.25
9,TCATACCTACATAAAAAAAGGGAAACAAAATGTCAT [XGTACX_negctrl_site34],9.34
10,AATAAATATAAATACACACCCATATATATATATATA [CACACA_site5436],9.45
11,TTAAAAAAAAAAAAAAGTACACACTTATAAAATATT [XGTACX_site1630],9.45
12,ACCAATAAATATTTGGTGCATACATATATATATATA,9.15
13,CTCCACAAACAAATCGCACACCCAACCCAACATATA [CACACA_site2650],9.86
14,ATAGAACTGAATAAATCTATAAATAAATATATATAT [GTGCAC_negctrl_site604],9.17
15,TATTATAATGACTATAGTACATAATATTATTTATAT [XGTACX_site1977],9.08
16,TATATATTTATATTTACACACAGTTACTATGTAGAT [CACACA_site3292],9.51
17,ATTAAATGATCAAGGTGTACATTAACAAGAACTATA [XGTACX_site7022],9.29
18,TGAATAAAAAAACCTAGTACTTAAATAAGTATATTT [XGTACX_site7690],9.16
19,TATATATATACATACGTACACACAAATATTAAAATA [CACACA_site1950],9.6
20,TAAAAAAAATAGAAACGTACATAAAAAATAAATAAT [XGTACX_site5796],9.73
21,TCATATAAAACATGCACACATATGTACTCTTATAAA [CACACA_site3748],9.33
22,TATATTTATATATGTTGTACTCTCCAATAATATTCC [XGTACX_site4438],9.28

row,Sequence,gcPBM binding intensity (ln)
1,ATATATATATATAGGGGTACTTAAATTTTACTAACC [XGTACX_site1832],9.43
2,ATTTTATTTATATACACACACATATATATATTATAT [CACACA_site822],9.79
3,TTGTATCTTCATTTTATCAGAAAAAAAAAAAAAAAT [CACACA_negctrl_site775],8.75
4,AATAAATAAATAAATTAATATATATATATATATAGA [CACACA_negctrl_site1661],9.2
5,AAAGGGTTACAAGAGGAACACACAAAAAAATAAATA [CACACA_site8406],9.62
6,AGCACCCACCAACACACACACACACCCACCCACCGA [CACACA_site368],10.3
7,TTTTGCGAAAAAAGGTGTACTGTAAATATATTGAGG [XGTACX_site8941],9.09
8,AAATAAATAAATATACGTACATATATATAATATATA [XGTACX_site5124],9.38
9,TACGTAAATTTTAATACACACTATAGGATATTCTGC [CACACA_site5418],9.22
10,TTTTTTTTGATTTGTTTGCACTTATTTCCACAATAA,9.35
11,TTTTTTTTTAATTACATAAAATAAAAATATTTCTAT [CACACA_negctrl_site584],8.75
12,TTAATATGTTTAACCATTTTACATAAATTGATTTGT [CACACA_negctrl_site1100],9.25
13,TTTTTAAAAAAATTGATTCTTTTTCTTTTTTTTCTT [XGTACX_negctrl_site127],8.78
14,TTTTTTGCTTGGGTGAGAAAAAATAAAATAAAGGAA [TGCATGCA_negctrl_site139],8.96
15,TTATAATCTTTTGGTTCTATAGAATATCAAAAAATA [CACACA_negctrl_site1149],8.76
16,AAAAAATAAAAGGAAAAAAAAAAAAAAAAAAAAAAT [CACACA_negctrl_site635],9.46
17,TATTATTGTCATTTTTTTTTTTTTTTTTTCTATTTC [XGTACX_negctrl_site114],9.31
18,TTATTAAAAATGTATTGTACAAATTTATTAGTAAAT [XGTACX_site4799],9.02
19,ATTTATACAAAGCTTCGTACATAATGTATTCTTTTT [XGTACX_site2166],9.37
20,TTTTAATTGTTTATTTGTACATATGTTTAATTATAT [XGTACX_site571],9.38
21,TTTAATATATATATGTGTACATATAAATTATATATA [XGTACX_site8511],8.96
22,GTACTTATTAAATGTGCATGTTGATATATAAATGTA [TGCATGCA_site902],9.25

row,Sequence,gcPBM binding intensity (ln)
1,TTTATATTTTAAAAAATAATATTATGTATTTTTAAA [TGCATGCA_negctrl_site507],8.68
2,ATATACATAAAAATATGTACATATAAAATATATACA [XGTACX_site2394],9.14
3,ATATAATAAACGTGTACACAATTAAATTATTATATA [CACACA_site5017],9.28
4,TAGACTCCCAGACACACACACACACCCATATAATAT [CACACA_site593],10.2
5,TTTTTTTTTTTTGGTGCATGCACATTTTGTTTTTTT [TGCATGCA_site570],9.53
6,TATTATTATTGTTGATGTACATTTAATATAATATAT [XGTACX_site4482],9.13
7,ACATTCAATAAACGTCGTACACTTTCCTTTTTATGA [XGTACX_site3274],9.33
8,AAAAAAACGATCGATCGTACTTATATTTACACATTC [XGTACX_site2883],9.36
9,TTGTTTGGTTATAATTGTACGCATGTAATTACATAT [XGTACX_site4972],9.46
10,TTATTTTTCTAAAAAGCATGCAAATAAAGATATGAA [TGCATGCA_site1032],8.98
11,ACATGGTGATAATACTGTACAAAAATAAATAAATAC [XGTACX_site897],9.52
12,ATATATATTTTATTATGTACTTACTTCTTTTCTTAA [XGTACX_site6163],9.24
13,TTTTATAGTCTTATGGGTACAAAATATTAACCCACG [XGTACX_site1131],8.83
14,ATTCACTGGTATGCATGAAAAAAAATATTATTATAA [CACACA_negctrl_site702],8.86
15,TATATATATTTATACACACACATATATTTATATATT [CACACA_site484],9.7
16,TTATGTGTATACTAAGAACACACAAGTTACTTGGTG [CACACA_site8467],9.72
17,ATTTTGATAACCGTACGTACATATATATATATATAT [XGTACX_site6605],9.38
18,TGAATACTTATGTTCGCACACATGCAAATTAAAAAA [CACACA_site4048],9.07
19,TATTGAAAAAATAAAAGTACAAACTCTTATAATATG [XGTACX_site8196],9.15
20,CCCGAACAAACAAATAAACACACAAAAAAAAATATA [CACACA_site8540],9.63
21,ATTATATATGTATGGTGTACTAAGAATATTTTTTTA [XGTACX_site1950],9.15
22,AACACATACAAACACACACACAAAAAAAAAAAAAAA [CACACA_site393],9.78
